The densities may have been worked out from excess volumes.
Assay: xn = mol fraction of the nth substance listed
Conditions: 101 kPa

c1ccsc1 + N#C[C-](C#N)C#N.OCC[n+]1ccccc1
x2 = 0
Conditions | mass density [kg/m3]
293.15 K | 1064.4
298.15 K | 1058.5
308.15 K | 1046.7
313.15 K | 1040.7
318.15 K | 1034.8
323.15 K | 1028.7
328.15 K | 1022.5
338.15 K | 1010.2
343.15 K | 1003.9

N#C[C-](C#N)C#N.OCC[n+]1ccccc1 + c1ccsc1
mass density [kg/m3]
Conditions | x1 = 0.4042 | x1 = 0.4996 | x1 = 0.6 | x1 = 0.7041 | x1 = 0.8044 | x1 = 0.901 | x1 = 1
293.15 K | 1149 | 1155.2 | 1160 | – | 1167.3 | 1170 | –
298.15 K | 1145 | 1151.5 | 1156.4 | 1160.5 | 1163.8 | – | 1170.4
303.15 K | 1141.4 | – | 1152.7 | 1156.9 | 1160.2 | – | 1167
308.15 K | 1137.6 | 1144 | 1149 | 1153.3 | 1156.7 | 1159.6 | 1163.5
313.15 K | 1133.8 | 1140.2 | 1145.4 | 1149.8 | 1153.2 | 1156.1 | 1160.1
318.15 K | 1130 | 1136.5 | 1141.8 | 1146.2 | – | 1152.7 | 1156.8
323.15 K | 1126.2 | 1132.8 | – | 1142.7 | 1146.3 | 1149.2 | 1153.4
328.15 K | 1122.5 | 1129.1 | 1134.6 | – | 1142.8 | – | 1150
333.15 K | 1118.7 | – | – | 1135.7 | 1139.4 | 1142.5 | 1146.7
338.15 K | – | – | 1127.5 | – | 1136 | 1139.1 | 1143.4
343.15 K | 1111 | – | 1123.9 | 1128.8 | – | 1135.8 | 1140.1
348.15 K | 1107.3 | 1114.2 | 1120.4 | 1125.3 | 1129.2 | 1132.4 | 1136.8

CCCCO + CCCCCCCCCCCC[N+](C)(C)Cc1ccccc1.O=S(=O)([N-]S(=O)(=O)C(F)(F)F)C(F)(F)F
x2 = 0
Conditions | mass density [kg/m3]
303.15 K | 802.1
318.15 K | 790.2
323.15 K | 785.9
328.15 K | 782.2
333.15 K | 777.8
338.15 K | 773.9

CCCCCCCCCCCC[N+](C)(C)Cc1ccccc1.O=S(=O)([N-]S(=O)(=O)C(F)(F)F)C(F)(F)F + CCCCO
mass density [kg/m3]
Conditions | x1 = 0.1507 | x1 = 0.3015 | x1 = 0.4494 | x1 = 0.594 | x1 = 0.7485 | x1 = 0.9164 | x1 = 1
293.15 K | 1006.8 | 1092.4 | 1139.4 | 1169.2 | 1191.2 | 1208.9 | 1216.8
298.15 K | 1002.8 | 1088.4 | 1135.5 | 1165 | 1187.2 | 1205 | –
303.15 K | 998.8 | – | 1131.4 | 1161.2 | 1183.2 | 1201 | 1208.9
308.15 K | 994.7 | – | 1127.1 | 1158 | 1179.3 | 1197 | –
313.15 K | 990.6 | 1076.1 | 1123.3 | 1153.1 | – | 1193.1 | 1201
318.15 K | – | 1072.1 | – | 1149.1 | 1171.4 | 1189.2 | 1197.1
323.15 K | 982.4 | 1068 | 1115.3 | 1145.2 | 1167.4 | 1185.3 | 1193.2
328.15 K | 978.3 | 1063.9 | 1111.3 | 1141.2 | 1163.5 | – | 1189.2
333.15 K | – | 1059.8 | – | – | 1159.6 | 1177.5 | 1185.3
338.15 K | 970 | 1055.7 | 1103.3 | 1133.4 | – | 1173.6 | –
343.15 K | 965.8 | 1051.6 | 1099.3 | 1129.4 | – | 1169.7 | 1177.4
348.15 K | 961.6 | 1047.5 | 1095.2 | – | 1147.8 | 1165.7 | 1173.4

Source: a compilation of properties of binary mixtures (doi:10.1016/j.fluid.2019.112304)
